Experimental data published in US6149912A (priority 1998, dated 2000).
Where two headings read alike, the source gives them in different places.

What was measured:
[1] = tested on: Candida albicans Amb 23A; settings: 1 μg 3x i.p. every other day; for Survival rate: 5 days post i.v. challenge (1.8×10^7 CFU)
Method: Experiments were conducted to determine the level of infection in selected organs of mice challenged with Candida albicans Amb 23A. Groups of mice were given solanine or chaconine i.p. every other day to receive three infections. Mice were challenged i.v. with 2×10^6 CFU Candida albicans Amb 23A the next day after the last injection of glycoalkaloid. The number of microorganisms present in various organs were calculated 24 hours post challenge and the results are shown in Table 5.
Experiments were conducted to determine the level of infection in selected organs of mice challenged with Candida albicans Amb 23A. Groups of mice were given solanine or chaconine i.p. every other day to receive three infections. Mice were challenged i.v. with 1.8×10^7 CFU Candida albicans Amb 23A the next day after the last injection of glycoalkaloid. The survival rate and the number of microorganisms present in various organs was calculated in surviving animals 5 days post challenge and the results are shown in Table 5.

[2] = tested on: S. typhimurium; format: cell-based, Salmonella typhimurium
[3] = mouse, in vivo
[4] = tested on: S. typhimurium SL1344; format: in vivo, Salmonella typhimurium (in CF-1 mice); settings: 5 days post challenge; for Survival rate: single 1 μg/mouse i.p. 5 days before i.p. challenge (4 × 10^3 CFU, 25 LD50); for Liver Culture / Spleen Culture: single 1 μg/mouse i.p. 5 days before i.p. challenge (25 LD50)
[5] = 24 hours after i.v. challenge (2×10^6 CFU)
[6] = survivors 5 days post i.v. challenge (1.8×10^7 CFU)

Row | Compound | Fecal Culture [1, 5] | Liver Culture [1, 5] | Spleen Culture [1, 5] | Survival rate [1] | Fecal Culture [1, 6] | Liver Culture [1, 6] | Spleen Culture [1, 6] | bactericidal/bacteriostatic activity [2] | lesions in tissues (histopathology) [3] | Survival rate [4] | Liver Culture [4] | Spleen Culture [4]
1 | C[C@H]1CC[C@@H]2[C@@H](C)[C@H]3[C@H](C[C@H]4[C@@H]5CC=C6C[C@@H](O[C@@H]7O[C@H](CO)[C@@H](O[C@@H]8O[C@@H](C)[C@H](O)[C@@H](O)[C@H]8O)[C@H](O)[C@H]7O[C@@H]7O[C@@H](C)[C@H](O)[C@@H](O)[C@H]7O)CC[C@]6(C)[C@H]5CC[C@]34C)N2C1 [chaconine] | 0.02 ± 0.0 CFU/pellet × 10^4 | 2.3 ± 0.1 CFU/500 mg × 10^4 | 0.6 ± 0.02 CFU/100 mg × 10^3 | 8/8 | 0.8 ± 0.3 CFU/pellet × 10^4 | 0.9 ± 0.3 CFU/500 mg × 10^4 | 1.4 ± 1.0 CFU/100 mg × 10^3 | neither bactericidal nor bacteriostatic | No lesions were observed in tissues from any dose group | 6/8 | 1.8 ± 0.3 CFU/500 mg × 10^6 | 0.9 ± 0.1 CFU/100 mg × 10^6
2 | C[C@H]1CC[C@@H]2[C@@H](C)[C@H]3[C@H](C[C@H]4[C@@H]5CC=C6C[C@@H](O[C@@H]7O[C@H](CO)[C@H](O)[C@H](O[C@@H]8O[C@H](CO)[C@@H](O)[C@H](O)[C@H]8O)[C@H]7O[C@@H]7O[C@@H](C)[C@H](O)[C@@H](O)[C@H]7O)CC[C@]6(C)[C@H]5CC[C@]34C)N2C1 [solanine] | 0.1 ± 0.06 CFU/pellet × 10^4 | 4.3 ± 0.1 CFU/500 mg × 10^4 | 0.9 ± 0.06 CFU/100 mg × 10^3 | 7/8 | 0.05 ± 0.02 CFU/pellet × 10^4 | 0.4 ± 0.4 CFU/500 mg × 10^4 | 1.0 ± 0.6 CFU/100 mg × 10^3 | neither bactericidal nor bacteriostatic | No lesions were observed in tissues from any dose group | 3/8 | 1.4 ± 0.2 CFU/500 mg × 10^6 | 0.7 ± 0.1 CFU/100 mg × 10^6
